Test results from PubChem BioAssay AID624417 (National Center for Advancing Translational Sciences (NCATS), 2012).
The campaign covered roughly 410,000 compounds. About 6,400 (1.6%) were called active. The inconclusive results got no clear call from the source; some entries with a clear call stand among them for comparison. The call rests on the fitted dose curve; in most records, active means well fitted inhibition curve with a large enough effect; inconclusive means small, poorly fitted or top-dose-only effect; inactive means no such curve, though single readings can be large or run the other way. Potencies of inconclusive entries are left out as doubtful fits.

What follows are compounds tested against Glucagon-like peptide 1 receptor (Homo sapiens) (UniProt P43220) (assay: qHTS of GLP-1 Receptor Inverse Agonists (Inhibition Mode)). Settings: HEK293 GLP-1R CRE-luciferase, luminescence, 24 h, GLP-1R form is constitutively active; series mostly up to 38.3 µM.
Sequence of UniProt P43220 (P43220 whole entry, looked up): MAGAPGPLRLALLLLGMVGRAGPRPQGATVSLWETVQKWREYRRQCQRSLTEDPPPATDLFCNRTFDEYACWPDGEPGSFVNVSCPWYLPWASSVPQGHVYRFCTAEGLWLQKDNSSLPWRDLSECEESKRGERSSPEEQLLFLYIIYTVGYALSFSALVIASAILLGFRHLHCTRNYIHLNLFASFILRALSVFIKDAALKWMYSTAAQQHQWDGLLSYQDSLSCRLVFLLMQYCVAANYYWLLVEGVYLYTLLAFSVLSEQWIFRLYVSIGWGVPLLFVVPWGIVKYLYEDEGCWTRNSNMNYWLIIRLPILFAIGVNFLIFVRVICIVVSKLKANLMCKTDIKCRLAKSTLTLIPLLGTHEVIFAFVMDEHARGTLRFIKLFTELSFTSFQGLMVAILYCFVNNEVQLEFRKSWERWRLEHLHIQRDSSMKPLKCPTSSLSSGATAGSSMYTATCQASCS
Outline: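 Stable HEK293 clone (constitutively active GLP-1R + cAMP-response luciferase); 200 cells/uL plated, 12 h pre-culture, compound 24 hr, 37 deg C/5% CO2; detection reagent 12 min RT; luminescence.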
Further: nearly all actives have a fitted effect of over 55% in size.
Potency means the concentration at half of the fitted maximal effect; tags describe the fitted curve by direction and shape.

SMILES | Potency
COc1ccccc1NC(=O)CN1CCN(CC(=O)Nc2ccc(OCc3ccccc3)cc2)CC1 | inconclusive [inhibitor, partial curve, poor fit]
Cc1cccn2c(=O)c(/C=C(\C#N)C(=O)NCc3ccco3)c(N3CCCC(C)C3)nc12 (stereo not drawn) | inconclusive [inhibitor, partial curve, poor fit]
CC(C)CN1C(=O)CN(S(C)(=O)=O)CC1(C)C(=O)NCc1ccccc1 (stereo not drawn) | inactive
CCO[C@@H]1OC(C(=O)N2CCN(Cc3ccccc3)CC2)=C[C@H](c2ccc(Br)cc2)[C@H]1CCCO | inconclusive [inhibitor, partial curve, poor fit]
O=C(Nc1nnc(-c2cccs2)o1)c1cccc(F)c1 | inconclusive [inhibitor, single point]
Cc1ccc(-c2noc(CN(C(=O)CCCN3C(=O)c4ccccc4C3=O)C(C)C)n2)cc1 | inconclusive [inhibitor, partial curve, poor fit]
COc1ccc(NC(=O)CC23CC4CC(C2)CC(n2nnc(C)n2)(C4)C3)cc1 | inconclusive [inhibitor, partial curve, poor fit]
N/C(=N\OC(=O)Cc1ccccc1)c1ccccc1Cl | inactive
COc1ccccc1N(C)S(=O)(=O)c1ccc(C(=O)OC(C)C(=O)NCc2ccc3c(c2)OCO3)cc1 (stereo not drawn) | inconclusive [inhibitor, partial curve, poor fit]
COc1ccccc1NC(=S)N(Cc1ccccc1)Cc1cccnc1 | inactive
COc1ccc(OC)c(NC(=O)c2cc(S(=O)(=O)NCc3ccco3)ccc2F)c1 | inactive
CCC1C(C#N)=C(SC)NC2=C1C(=O)CC(C)(C)C2 (stereo not drawn) | inconclusive [inhibitor, full curve, poor fit]
Cc1cccc(OCC(=O)Nc2ccc(C(=O)OCc3cc(=O)n4nc(C5CC5)sc4n3)cc2)c1 | inactive
Cc1ccc(-c2noc(-c3cccnc3NCc3ccc(Cl)cc3)n2)cc1 | inactive
COc1ccc(-c2cnc(C(O)c3ccc(OC)c(F)c3)[nH]2)cc1 (stereo not drawn) | inconclusive [inhibitor, single point]
Cc1c(C(=O)N2CCc3ccccc32)oc2ccccc12 | inconclusive [inhibitor, single point]
CCN(CC)c1ccc2cc(-c3nc4ccccc4n3C)c(=O)oc2c1 | inconclusive [inhibitor, full curve, poor fit]
COc1cc([N+](=O)[O-])cc(/C=C2/SC(=S)N(Cc3ccccc3)C2=O)c1O | inconclusive [inhibitor, partial curve]
